Test results as given in PubChem BioAssay (NCI).
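Where inhibition never reached the appropriate level, the endpoint shown equals the highest concentration tested. Otherwise, values were interpolated linearly from a five-concentration, 48-hour dose response in 96-well plates. Here, GI50 denotes the concentration required for 50% inhibition of growth. TGI is the concentration that stops growth completely.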

System: NCI-H322M lung
Experiment: NCI anticancer screen, dose series, 48 h

Structure (SMILES)	GI50	TGI
Clc1ccc2c(NCCNC34CC5CC(CC(C5)C3)C4)ccnc2c1	3300 nM	6.39 µM
Cn1cc(-c2cc(N)n3nc(-c4cn(C)c5ccccc45)cc3n2)c2cc(Br)ccc21	1820 nM	5.86 µM
